Laboratory results: the supplement of paper PMC8728848
The other results are listed elsewhere or left out.

Assays:
Assay in all cases: glycan array binding signal (z-score within array); higher = stronger binding
Details in all cases: glycan notation: IUPAC condensed, linker removed
[1] = target: Gal(a1-3)Gal(b1-4)GlcNAc(b1-2)Man
Method in brief: (§1)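 The Consortium for Functional Glycomics database supplied 3228 glycan arrays, of which those lacking an available protein sequence were dropped. The binding signal, a within-array Z-score, was averaged across arrays of the same protein sequence and across linkers. Negative scores can be read as non-binding.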

[2] = target: Gal(a1-3)Gal(b1-4)GlcNAc(b1-2)Man(a1-3)[Gal(a1-3)Gal(b1-4)GlcNAc(b1-2)Man(a1-6)]Man(b1-4)GlcNAc(b1-4)GlcNAc
Method in brief: as §1

[3] = target: Gal(a1-3)Gal(b1-4)GlcNAc(b1-3)GalNAc
Method in brief: as §1

[4] = target: Gal(a1-3)Gal(b1-4)GlcNAc(b1-6)GalNAc
Method in brief: as §1

[5] = target: Gal(a1-3)Gal(b1-4)[Fuc(a1-3)]GlcNAc
Method in brief: as §1

[6] = target: Gal(a1-3)Gal(b1-4)[Fuc(a1-3)]GlcNAc(b1-2)Man(a1-3)[Gal(a1-3)Gal(b1-4)[Fuc(a1-3)]GlcNAc(b1-2)Man(a1-6)]Man(b1-4)GlcNAc(b1-4)GlcNAc
Method in brief: as §1

Gal(a1-3)GalNAc = target: Gal(a1-3)GalNAc
Method in brief: as §1

[7] = target: Gal(a1-3)[Gal(a1-4)]Gal(b1-4)GlcNAc
Method in brief: as §1

[8] = target: Gal(a1-4)Gal(b1-3)GlcNAc(b1-2)Man(a1-3)[Gal(a1-4)Gal(b1-3)GlcNAc(b1-2)Man(a1-6)]Man(b1-4)GlcNAc(b1-4)GlcNAc
Method in brief: as §1

Gal(a1-4)Gal(b1-4)Glc = target: Gal(a1-4)Gal(b1-4)Glc
Method in brief: as §1

Gal(a1-4)Gal(b1-4)GlcNAc = target: Gal(a1-4)Gal(b1-4)GlcNAc
Method in brief: as §1

[9] = target: Gal(a1-4)Gal(b1-4)GlcNAc(b1-2)Man(a1-3)[Gal(a1-4)Gal(b1-4)GlcNAc(b1-2)Man(a1-6)]Man(b1-4)GlcNAc(b1-4)GlcNAc
Method in brief: as §1

[10] = target: Gal(a1-4)Gal(b1-4)GlcNAc(b1-3)Gal(b1-4)Glc
Method in brief: as §1

Gal(a1-4)GlcNAc = target: Gal(a1-4)GlcNAc
Method in brief: as §1

Gal(a1-6)Glc = target: Gal(a1-6)Glc
Method in brief: as §1

Gal(b1-2)Gal = target: Gal(b1-2)Gal
Method in brief: as §1

Gal(b1-3)Gal = target: Gal(b1-3)Gal
Method in brief: as §1

Gal(b1-3)Gal(b1-4)GlcNAc = target: Gal(b1-3)Gal(b1-4)GlcNAc
Method in brief: as §1

Gal(b1-3)GalNAc = target: Gal(b1-3)GalNAc
Method in brief: as §1

[11] = target: Gal(b1-3)GalNAc(a1-3)[Fuc(a1-2)]Gal(b1-4)Glc
Method in brief: as §1

[12] = target: Gal(b1-3)GalNAc(a1-3)[Fuc(a1-2)]Gal(b1-4)GlcNAc
Method in brief: as §1

Gal(b1-3)GalNAc(b1-3)Gal = target: Gal(b1-3)GalNAc(b1-3)Gal
Method in brief: as §1

[13] = target: Gal(b1-3)GalNAc(b1-3)Gal(a1-4)Gal(b1-4)Glc
Method in brief: as §1

[14] = target: Gal(b1-3)GalNAc(b1-4)Gal(b1-4)Glc
Method in brief: as §1

[15] = target: Gal(b1-3)GalNAc(b1-4)[Neu5Ac(a2-3)]Gal(b1-4)Glc
Method in brief: as §1

Gal(b1-3)GlcNAc = target: Gal(b1-3)GlcNAc
Method in brief: as §1

[16] = target: Gal(b1-3)GlcNAc(a1-3)Gal(b1-4)GlcNAc
Method in brief: as §1

[17] = target: Gal(b1-3)GlcNAc(a1-6)Gal(b1-4)GlcNAc
Method in brief: as §1

Gal(b1-3)GlcNAc(b1-2)Man = target: Gal(b1-3)GlcNAc(b1-2)Man
Method in brief: as §1

[18] = target: Gal(b1-3)GlcNAc(b1-2)Man(a1-3)[Gal(b1-3)GlcNAc(b1-2)Man(a1-6)]Man(b1-4)GlcNAc(b1-4)GlcNAc
Method in brief: as §1

[19] = target: Gal(b1-3)GlcNAc(b1-2)Man(a1-3)[Gal(b1-3)GlcNAc(b1-2)Man(a1-6)]Man(b1-4)GlcNAc(b1-4)[Fuc(a1-6)]GlcNAc
Method in brief: as §1

[20] = target: Gal(b1-3)GlcNAc(b1-2)Man(a1-3)[GlcNAc(b1-4)][Gal(b1-3)GlcNAc(b1-2)Man(a1-6)]Man(b1-4)GlcNAc(b1-4)GlcNAc
Method in brief: as §1

[21] = target: Gal(b1-3)GlcNAc(b1-2)[Gal(b1-3)GlcNAc(b1-6)]Man(a1-6)[Gal(b1-3)GlcNAc(b1-2)Man(a1-3)]Man(b1-4)GlcNAc(b1-4)GlcNAc
Method in brief: as §1

[22] = target: Gal(b1-3)GlcNAc(b1-3)Gal(b1-3)GlcNAc
Method in brief: as §1

[23] = target: Gal(b1-3)GlcNAc(b1-3)Gal(b1-4)Glc
Method in brief: as §1

[24] = target: Gal(b1-3)GlcNAc(b1-3)Gal(b1-4)GlcNAc
Method in brief: as §1

[25] = target: Gal(b1-3)GlcNAc(b1-3)Gal(b1-4)GlcNAc(b1-2)Man(a1-3)[Gal(b1-3)GlcNAc(b1-3)Gal(b1-4)GlcNAc(b1-2)Man(a1-6)]Man(b1-4)GlcNAc(b1-4)GlcNAc
Method in brief: as §1

B1: PX14343A-bvu-539-29-539 (Bacteroides vulgatus) (protein)
chain: DSLTESSSNTFWQTPDDALMALASCYDALQSNQLYNSDQYSLGPLYMDCISDNGGHFNWSGWMEGYDMAMGIHTPSSSIIGSYWKDCYEVISRCNVLIANIDRVDMDASQKAIYQAEAKTIRALMYINLTMTYQDVPFLTAPLTIDEAECEKTDRAAIVAHVMTDLQDAAEVLPQNASSRGHITKGAALSLLGRVALYNEKWDDAIAAYKQVQGLGYSLDPSYAKLFTQSGETSPEIIFAVRYEGPGMSEGAAFNAHWNTPLEAMNGTIDLADAYYCKDGKPTTDTKIAELNGGGGLDVSKPNPAHFENRDPRLYSTLFVPGMLWNGKGGIDTSASNPYANVYGGAAASLSTVYVYKYFDPTDTSNSWDNGQDFYVVRYAEVLLSLAEAMVQKGGYVYSDVTALVNEVRQRADVNMPTVEEVEGTSLSKDELLEVIKHERRVELAFEGLRLFDLYRWKELDKAVANIENERTMYGLAYEARKFNGERDYVWPLPTAELDTNKKLVQHDLWK
glycan array binding signal (z-score) [1]: -0.226 | glycan array binding signal (z-score) [2]: -0.103 | glycan array binding signal (z-score) [3]: -0.358 | glycan array binding signal (z-score) [4]: 0.952 | glycan array binding signal (z-score) [5]: -0.414 | glycan array binding signal (z-score) [6]: -0.051 | glycan array binding signal (z-score) (Gal(a1-3)GalNAc): -0.288 | glycan array binding signal (z-score) [7]: 6.76 | glycan array binding signal (z-score) [8]: 0.517 | glycan array binding signal (z-score) (Gal(a1-4)Gal(b1-4)Glc): -0.184 | glycan array binding signal (z-score) (Gal(a1-4)Gal(b1-4)GlcNAc): -0.281 | glycan array binding signal (z-score) [9]: 2.41 | glycan array binding signal (z-score) [10]: -0.164 | glycan array binding signal (z-score) (Gal(a1-4)GlcNAc): 0.11 | glycan array binding signal (z-score) (Gal(a1-6)Glc): -0.383 | glycan array binding signal (z-score) (Gal(b1-2)Gal): 0.085 | glycan array binding signal (z-score) (Gal(b1-3)Gal): -0.212 | glycan array binding signal (z-score) (Gal(b1-3)Gal(b1-4)GlcNAc): 0.494 | glycan array binding signal (z-score) (Gal(b1-3)GalNAc): -0.237 | glycan array binding signal (z-score) [11]: -0.143 | glycan array binding signal (z-score) [12]: -0.445 | glycan array binding signal (z-score) (Gal(b1-3)GalNAc(b1-3)Gal): -0.511 | glycan array binding signal (z-score) [13]: -0.229 | glycan array binding signal (z-score) [14]: -0.346 | glycan array binding signal (z-score) [15]: -0.016 | glycan array binding signal (z-score) (Gal(b1-3)GlcNAc): -0.258 | glycan array binding signal (z-score) [16]: -0.396 | glycan array binding signal (z-score) [17]: 0.016 | glycan array binding signal (z-score) (Gal(b1-3)GlcNAc(b1-2)Man): -0.168 | glycan array binding signal (z-score) [18]: 0.765 | glycan array binding signal (z-score) [19]: -0.134 | glycan array binding signal (z-score) [20]: 0.067 | glycan array binding signal (z-score) [21]: 1.13 | glycan array binding signal (z-score) [22]: -0.196 | glycan array binding signal (z-score) [23]: -0.279 | glycan array binding signal (z-score) [24]: -0.247 | glycan array binding signal (z-score) [25]: 0.308
